{"source": "the supplement of paper PMC12230231", "note": "± gives the standard deviation of the averaged measurements. Restriction of a single-cycle SIVsab GFP reporter by TRIM5α v1-loop variants in CRFK cells. Human variants: read share among cells still uninfected after two challenges over input, higher = gained restriction. Rhesus variants: share among infected cells over input, higher = lost restriction. Reporter dose not given per row. No active / inactive call per row; the paper calls a change when both replicates lie above its controls (mean + 2 SD of stop or wild-type variants, or the top frameshift score). Residues outside the varied loop are taken from Swiss-Prot. The paper reads the human single-substitution scores as noise; they and the rhesus combinations repeat poorly (rank correlation 0.3 to 0.4), indel scores repeat only for the top variants, rhesus substitutions well (0.9).", "data": [{"system": "SIVsab (simian immunodeficiency virus of sabaeus monkeys), single-cycle GFP reporter, in CRFK cells", "test": "enrichment among infected cells over input (fold); higher = weaker restriction", "conditions": "library: human / rhesus combinations", "procedure": "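Pools of CRFK cells expressing variants of the TRIM5α v1 loop were challenged with the single-cycle reporter, sorted by GFP and sequenced; mean of two replicates.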", "values": [{"sequence": "MASGILLNVKEEVTCPICLELLTEPLSLHCGHSFCQACITANHKKSMLYKEGERSCPVCRISYQPENIQPNRHVANIVEKLREVKLSPEEGQKVDHCARHGEKLLLFCQEDSKVICWLCERSQEHRGHHTFLMEEVAQEYHVKLQTALEMLRQKQQEAEKLEADIREEKASWKIQIDYDKTNVSADFEQLREILDWEESNELQNLEKEEEDILKSLTKSETEMVQQTQYMRELISELEHRLQGSMMDLLQGVDGIIKRIENMTLKKPKTFHKNQRRVFRAPDLKGMLDMFRELTDARRYWVDVTLAPNNISHAVIAEDKRQVSSRNPQIMYGARGTRYTFQTLVNFNYCTGVLGSQSITSGKHYWEVDVSKKSAWILGVCAGFQSDAMYNIEQNENYQPKYGYWVIGLQEGVKYSVFQDGSSHTPFAPFIVPLSVIICPDRVGVFVDYEACTVSFFNITNHGFLIYKFSQCSFSKPVFPYLNPRKCTVPMTLCSPSS [rhesus TRIM5α, 332-344 = GARGTRYTFQTLV]", "enrichment": "0.999 ± 0.21"}, {"sequence": "MASGILLNVKEEVTCPICLELLTEPLSLHCGHSFCQACITANHKKSMLYKEGERSCPVCRISYQPENIQPNRHVANIVEKLREVKLSPEEGQKVDHCARHGEKLLLFCQEDSKVICWLCERSQEHRGHHTFLMEEVAQEYHVKLQTALEMLRQKQQEAEKLEADIREEKASWKIQIDYDKTNVSADFEQLREILDWEESNELQNLEKEEEDILKSLTKSETEMVQQTQYMRELISELEHRLQGSMMDLLQGVDGIIKRIENMTLKKPKTFHKNQRRVFRAPDLKGMLDMFRELTDARRYWVDVTLAPNNISHAVIAEDKRQVSSRNPQIMYGARGTLYQSLTNFNYCTGVLGSQSITSGKHYWEVDVSKKSAWILGVCAGFQSDAMYNIEQNENYQPKYGYWVIGLQEGVKYSVFQDGSSHTPFAPFIVPLSVIICPDRVGVFVDYEACTVSFFNITNHGFLIYKFSQCSFSKPVFPYLNPRKCTVPMTLCSPSS [rhesus TRIM5α, 332-344 = GARGTLYQSLT]", "enrichment": "0.563 ± 0.18"}, {"sequence": "MASGILLNVKEEVTCPICLELLTEPLSLHCGHSFCQACITANHKKSMLYKEGERSCPVCRISYQPENIQPNRHVANIVEKLREVKLSPEEGQKVDHCARHGEKLLLFCQEDSKVICWLCERSQEHRGHHTFLMEEVAQEYHVKLQTALEMLRQKQQEAEKLEADIREEKASWKIQIDYDKTNVSADFEQLREILDWEESNELQNLEKEEEDILKSLTKSETEMVQQTQYMRELISELEHRLQGSMMDLLQGVDGIIKRIENMTLKKPKTFHKNQRRVFRAPDLKGMLDMFRELTDARRYWVDVTLAPNNISHAVIAEDKRQVSSRNPQIMYQARGTLFTFPTFTNFNYCTGVLGSQSITSGKHYWEVDVSKKSAWILGVCAGFQSDAMYNIEQNENYQPKYGYWVIGLQEGVKYSVFQDGSSHTPFAPFIVPLSVIICPDRVGVFVDYEACTVSFFNITNHGFLIYKFSQCSFSKPVFPYLNPRKCTVPMTLCSPSS [rhesus TRIM5α, 332-344 = QARGTLFTFPTFT]", "enrichment": "0.099 ± 0.089"}, {"sequence": "MASGILLNVKEEVTCPICLELLTEPLSLHCGHSFCQACITANHKKSMLYKEGERSCPVCRISYQPENIQPNRHVANIVEKLREVKLSPEEGQKVDHCARHGEKLLLFCQEDSKVICWLCERSQEHRGHHTFLMEEVAQEYHVKLQTALEMLRQKQQEAEKLEADIREEKASWKIQIDYDKTNVSADFEQLREILDWEESNELQNLEKEEEDILKSLTKSETEMVQQTQYMRELISELEHRLQGSMMDLLQGVDGIIKRIENMTLKKPKTFHKNQRRVFRAPDLKGMLDMFRELTDARRYWVDVTLAPNNISHAVIAEDKRQVSSRNPQIMYGAPGTRYPSFTNFNYCTGVLGSQSITSGKHYWEVDVSKKSAWILGVCAGFQSDAMYNIEQNENYQPKYGYWVIGLQEGVKYSVFQDGSSHTPFAPFIVPLSVIICPDRVGVFVDYEACTVSFFNITNHGFLIYKFSQCSFSKPVFPYLNPRKCTVPMTLCSPSS [rhesus TRIM5α, 332-344 = GAPGTRYPSFT]", "enrichment": "2.57 ± 3"}, {"sequence": "MASGILLNVKEEVTCPICLELLTEPLSLHCGHSFCQACITANHKKSMLYKEGERSCPVCRISYQPENIQPNRHVANIVEKLREVKLSPEEGQKVDHCARHGEKLLLFCQEDSKVICWLCERSQEHRGHHTFLMEEVAQEYHVKLQTALEMLRQKQQEAEKLEADIREEKASWKIQIDYDKTNVSADFEQLREILDWEESNELQNLEKEEEDILKSLTKSETEMVQQTQYMRELISELEHRLQGSMMDLLQGVDGIIKRIENMTLKKPKTFHKNQRRVFRAPDLKGMLDMFRELTDARRYWVDVTLAPNNISHAVIAEDKRQVSSRNPQIMYQAPGTRFTFQTFTNFNYCTGVLGSQSITSGKHYWEVDVSKKSAWILGVCAGFQSDAMYNIEQNENYQPKYGYWVIGLQEGVKYSVFQDGSSHTPFAPFIVPLSVIICPDRVGVFVDYEACTVSFFNITNHGFLIYKFSQCSFSKPVFPYLNPRKCTVPMTLCSPSS [rhesus TRIM5α, 332-344 = QAPGTRFTFQTFT]", "enrichment": "1.04 ± 0.12"}, {"sequence": "MASGILLNVKEEVTCPICLELLTEPLSLHCGHSFCQACITANHKKSMLYKEGERSCPVCRISYQPENIQPNRHVANIVEKLREVKLSPEEGQKVDHCARHGEKLLLFCQEDSKVICWLCERSQEHRGHHTFLMEEVAQEYHVKLQTALEMLRQKQQEAEKLEADIREEKASWKIQIDYDKTNVSADFEQLREILDWEESNELQNLEKEEEDILKSLTKSETEMVQQTQYMRELISELEHRLQGSMMDLLQGVDGIIKRIENMTLKKPKTFHKNQRRVFRAPDLKGMLDMFRELTDARRYWVDVTLAPNNISHAVIAEDKRQVSSRNPQIMYGAPGTRYQSLTNFNYCTGVLGSQSITSGKHYWEVDVSKKSAWILGVCAGFQSDAMYNIEQNENYQPKYGYWVIGLQEGVKYSVFQDGSSHTPFAPFIVPLSVIICPDRVGVFVDYEACTVSFFNITNHGFLIYKFSQCSFSKPVFPYLNPRKCTVPMTLCSPSS [rhesus TRIM5α, 332-344 = GAPGTRYQSLT]", "enrichment": "0.777 ± 0.25"}, {"sequence": "MASGILLNVKEEVTCPICLELLTEPLSLHCGHSFCQACITANHKKSMLYKEGERSCPVCRISYQPENIQPNRHVANIVEKLREVKLSPEEGQKVDHCARHGEKLLLFCQEDSKVICWLCERSQEHRGHHTFLMEEVAQEYHVKLQTALEMLRQKQQEAEKLEADIREEKASWKIQIDYDKTNVSADFEQLREILDWEESNELQNLEKEEEDILKSLTKSETEMVQQTQYMRELISELEHRLQGSMMDLLQGVDGIIKRIENMTLKKPKTFHKNQRRVFRAPDLKGMLDMFRELTDARRYWVDVTLAPNNISHAVIAEDKRQVSSRNPQIMYQAPGTRYTFPTFTNFNYCTGVLGSQSITSGKHYWEVDVSKKSAWILGVCAGFQSDAMYNIEQNENYQPKYGYWVIGLQEGVKYSVFQDGSSHTPFAPFIVPLSVIICPDRVGVFVDYEACTVSFFNITNHGFLIYKFSQCSFSKPVFPYLNPRKCTVPMTLCSPSS [rhesus TRIM5α, 332-344 = QAPGTRYTFPTFT]", "enrichment": "0.766 ± 0.2"}, {"sequence": "MASGILLNVKEEVTCPICLELLTEPLSLHCGHSFCQACITANHKKSMLYKEGERSCPVCRISYQPENIQPNRHVANIVEKLREVKLSPEEGQKVDHCARHGEKLLLFCQEDSKVICWLCERSQEHRGHHTFLMEEVAQEYHVKLQTALEMLRQKQQEAEKLEADIREEKASWKIQIDYDKTNVSADFEQLREILDWEESNELQNLEKEEEDILKSLTKSETEMVQQTQYMRELISELEHRLQGSMMDLLQGVDGIIKRIENMTLKKPKTFHKNQRRVFRAPDLKGMLDMFRELTDARRYWVDVTLAPNNISHAVIAEDKRQVSSRNPQIMYQARGTRYTFPTFVNFNYCTGVLGSQSITSGKHYWEVDVSKKSAWILGVCAGFQSDAMYNIEQNENYQPKYGYWVIGLQEGVKYSVFQDGSSHTPFAPFIVPLSVIICPDRVGVFVDYEACTVSFFNITNHGFLIYKFSQCSFSKPVFPYLNPRKCTVPMTLCSPSS [rhesus TRIM5α, 332-344 = QARGTRYTFPTFV]", "enrichment": "2.91 ± 0.63"}, {"sequence": "MASGILLNVKEEVTCPICLELLTEPLSLHCGHSFCQACITANHKKSMLYKEGERSCPVCRISYQPENIQPNRHVANIVEKLREVKLSPEEGQKVDHCARHGEKLLLFCQEDSKVICWLCERSQEHRGHHTFLMEEVAQEYHVKLQTALEMLRQKQQEAEKLEADIREEKASWKIQIDYDKTNVSADFEQLREILDWEESNELQNLEKEEEDILKSLTKSETEMVQQTQYMRELISELEHRLQGSMMDLLQGVDGIIKRIENMTLKKPKTFHKNQRRVFRAPDLKGMLDMFRELTDARRYWVDVTLAPNNISHAVIAEDKRQVSSRNPQIMYGARGTRFTFQTLVNFNYCTGVLGSQSITSGKHYWEVDVSKKSAWILGVCAGFQSDAMYNIEQNENYQPKYGYWVIGLQEGVKYSVFQDGSSHTPFAPFIVPLSVIICPDRVGVFVDYEACTVSFFNITNHGFLIYKFSQCSFSKPVFPYLNPRKCTVPMTLCSPSS [rhesus TRIM5α, 332-344 = GARGTRFTFQTLV]", "enrichment": "1.07 ± 0.46"}, {"sequence": "MASGILLNVKEEVTCPICLELLTEPLSLHCGHSFCQACITANHKKSMLYKEGERSCPVCRISYQPENIQPNRHVANIVEKLREVKLSPEEGQKVDHCARHGEKLLLFCQEDSKVICWLCERSQEHRGHHTFLMEEVAQEYHVKLQTALEMLRQKQQEAEKLEADIREEKASWKIQIDYDKTNVSADFEQLREILDWEESNELQNLEKEEEDILKSLTKSETEMVQQTQYMRELISELEHRLQGSMMDLLQGVDGIIKRIENMTLKKPKTFHKNQRRVFRAPDLKGMLDMFRELTDARRYWVDVTLAPNNISHAVIAEDKRQVSSRNPQIMYQAPGTLYTFQTLVNFNYCTGVLGSQSITSGKHYWEVDVSKKSAWILGVCAGFQSDAMYNIEQNENYQPKYGYWVIGLQEGVKYSVFQDGSSHTPFAPFIVPLSVIICPDRVGVFVDYEACTVSFFNITNHGFLIYKFSQCSFSKPVFPYLNPRKCTVPMTLCSPSS [rhesus TRIM5α, 332-344 = QAPGTLYTFQTLV]", "enrichment": "0.806 ± 0.26"}, {"sequence": "MASGILLNVKEEVTCPICLELLTEPLSLHCGHSFCQACITANHKKSMLYKEGERSCPVCRISYQPENIQPNRHVANIVEKLREVKLSPEEGQKVDHCARHGEKLLLFCQEDSKVICWLCERSQEHRGHHTFLMEEVAQEYHVKLQTALEMLRQKQQEAEKLEADIREEKASWKIQIDYDKTNVSADFEQLREILDWEESNELQNLEKEEEDILKSLTKSETEMVQQTQYMRELISELEHRLQGSMMDLLQGVDGIIKRIENMTLKKPKTFHKNQRRVFRAPDLKGMLDMFRELTDARRYWVDVTLAPNNISHAVIAEDKRQVSSRNPQIMYQARGTLYTFPSFTNFNYCTGVLGSQSITSGKHYWEVDVSKKSAWILGVCAGFQSDAMYNIEQNENYQPKYGYWVIGLQEGVKYSVFQDGSSHTPFAPFIVPLSVIICPDRVGVFVDYEACTVSFFNITNHGFLIYKFSQCSFSKPVFPYLNPRKCTVPMTLCSPSS [rhesus TRIM5α, 332-344 = QARGTLYTFPSFT]", "enrichment": "1.55 ± 0.9"}, {"sequence": "MASGILLNVKEEVTCPICLELLTEPLSLHCGHSFCQACITANHKKSMLYKEGERSCPVCRISYQPENIQPNRHVANIVEKLREVKLSPEEGQKVDHCARHGEKLLLFCQEDSKVICWLCERSQEHRGHHTFLMEEVAQEYHVKLQTALEMLRQKQQEAEKLEADIREEKASWKIQIDYDKTNVSADFEQLREILDWEESNELQNLEKEEEDILKSLTKSETEMVQQTQYMRELISELEHRLQGSMMDLLQGVDGIIKRIENMTLKKPKTFHKNQRRVFRAPDLKGMLDMFRELTDARRYWVDVTLAPNNISHAVIAEDKRQVSSRNPQIMYQARGTRFTFQTLVNFNYCTGVLGSQSITSGKHYWEVDVSKKSAWILGVCAGFQSDAMYNIEQNENYQPKYGYWVIGLQEGVKYSVFQDGSSHTPFAPFIVPLSVIICPDRVGVFVDYEACTVSFFNITNHGFLIYKFSQCSFSKPVFPYLNPRKCTVPMTLCSPSS [rhesus TRIM5α, 332-344 = QARGTRFTFQTLV]", "enrichment": "1.11 ± 0.66"}]}]}
